In patent publication US20250270341A1 (Alector, published 2025):

T1: Full length human CD98hc on CHO cells (human)
T1 construct: CHO cells stably overexpressing it; also called CHO-human CD98hc; CHO-huCD98hc
T1 chain: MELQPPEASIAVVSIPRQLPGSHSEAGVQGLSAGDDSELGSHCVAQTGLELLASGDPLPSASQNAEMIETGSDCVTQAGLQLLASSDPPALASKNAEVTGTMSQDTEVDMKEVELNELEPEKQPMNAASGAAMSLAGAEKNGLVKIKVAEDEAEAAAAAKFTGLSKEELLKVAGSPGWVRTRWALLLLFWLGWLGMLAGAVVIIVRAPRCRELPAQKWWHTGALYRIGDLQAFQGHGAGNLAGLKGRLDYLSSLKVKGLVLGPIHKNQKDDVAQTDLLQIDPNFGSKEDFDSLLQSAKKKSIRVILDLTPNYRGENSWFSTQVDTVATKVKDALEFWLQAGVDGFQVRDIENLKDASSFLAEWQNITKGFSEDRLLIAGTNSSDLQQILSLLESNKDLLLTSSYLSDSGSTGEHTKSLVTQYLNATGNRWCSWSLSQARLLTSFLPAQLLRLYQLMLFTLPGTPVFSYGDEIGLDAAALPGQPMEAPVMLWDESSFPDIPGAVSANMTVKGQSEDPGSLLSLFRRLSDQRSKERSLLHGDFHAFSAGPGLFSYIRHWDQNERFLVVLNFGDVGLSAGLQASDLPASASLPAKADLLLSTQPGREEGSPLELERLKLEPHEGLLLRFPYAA

T2: Full length mouse CD98hc on CHO cells (mouse, UniProt P10852 1-526)
T2 construct: CHO cells stably overexpressing it; also called CHO-mouse CD98hc; CHO-mCD98hc
T2 sequence: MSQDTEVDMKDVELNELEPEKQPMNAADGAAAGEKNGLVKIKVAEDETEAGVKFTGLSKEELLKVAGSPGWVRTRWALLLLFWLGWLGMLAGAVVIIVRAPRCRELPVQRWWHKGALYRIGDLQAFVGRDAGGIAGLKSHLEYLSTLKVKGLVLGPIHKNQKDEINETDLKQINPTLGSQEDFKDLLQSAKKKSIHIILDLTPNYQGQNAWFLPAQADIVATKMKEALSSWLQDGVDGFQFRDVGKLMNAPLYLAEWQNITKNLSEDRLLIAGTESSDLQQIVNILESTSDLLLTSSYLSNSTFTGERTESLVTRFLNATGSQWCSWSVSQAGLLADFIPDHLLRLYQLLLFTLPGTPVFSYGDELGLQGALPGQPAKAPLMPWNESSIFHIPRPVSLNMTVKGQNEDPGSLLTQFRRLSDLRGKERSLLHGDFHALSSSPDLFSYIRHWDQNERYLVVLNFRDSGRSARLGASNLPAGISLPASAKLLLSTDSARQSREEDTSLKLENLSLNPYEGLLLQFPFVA

T3: human CD98hc endogenously expressed on HCMEC/D3 cells (human)
T3 construct: human brain endothelial cell line
T3 chain: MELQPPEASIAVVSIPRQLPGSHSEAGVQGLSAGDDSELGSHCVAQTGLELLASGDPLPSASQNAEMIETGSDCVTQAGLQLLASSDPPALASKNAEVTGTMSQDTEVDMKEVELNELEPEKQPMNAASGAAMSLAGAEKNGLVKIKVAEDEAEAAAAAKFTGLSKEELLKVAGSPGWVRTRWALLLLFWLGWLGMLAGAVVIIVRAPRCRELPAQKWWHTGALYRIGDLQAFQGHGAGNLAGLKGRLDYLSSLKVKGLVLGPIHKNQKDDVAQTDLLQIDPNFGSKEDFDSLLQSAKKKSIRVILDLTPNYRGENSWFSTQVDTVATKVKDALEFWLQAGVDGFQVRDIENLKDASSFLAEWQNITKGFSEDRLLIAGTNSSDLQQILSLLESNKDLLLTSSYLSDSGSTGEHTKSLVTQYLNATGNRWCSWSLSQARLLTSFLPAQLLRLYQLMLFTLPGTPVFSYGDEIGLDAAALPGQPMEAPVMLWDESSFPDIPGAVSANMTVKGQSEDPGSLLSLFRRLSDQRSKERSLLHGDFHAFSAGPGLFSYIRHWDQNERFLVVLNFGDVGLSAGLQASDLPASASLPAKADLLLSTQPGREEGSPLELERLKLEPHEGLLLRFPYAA

B1: CD98hc.04.006 (2+1 bispecific antibody) (bispecific antibody)
heavy 1: EVRLLESGGGLVQPGGSLRLSCAASGFTFSNYAMGWVRQAPGKGLEWVSAISGSGGSTYYADSVKGRFTTSRDDSKNALYLQMNSLRAEDTAVYYCARGGPGWYAADVWGQGTTVTVSSASTKGPSVFPLAPSSKSTSGGTAALGCLVKDYFPEPVTVSWNSGALTSGVHTFPAVLQSSGLYSLSSVVTVPSSSLGTQTYICNVNHKPSNTKVDKKV[here human IgG1 Fc with changes without letters]GGGGSGGGGSGGGGSEVNLVESGGDLVQPGGSLRLSCATSGFTFTDYFMSWVRQPPGKALEWLGFIRNKAYGYTTEYSASVKGRFTISRDNSQSIFYLQMNTLRLEDSATYYCARGPFISTAPFAYWGQGTLVTVSAGGSEGKSSGSGSESKSTGGSDIVMSQSPSSLAVSVGETVTMSCKSSQSLLYSSNQKNYLAWYQQKPGQSPKLLIYWGSTRESGVPDRFTGSGSGTDFTLTISSVKAEDLAVYYCQHYYGYPWTFGGGTKLEIK
heavy 2: EVRLLESGGGLVQPGGSLRLSCAASGFTFSNYAMGWVRQAPGKGLEWVSAISGSGGSTYYADSVKGRFTTSRDDSKNALYLQMNSLRAEDTAVYYCARGGPGWYAADVWGQGTTVTVSS[here human IgG1 constant region with changes without letters]
light: DIQMTQSPSSLSASVGDRVTITCRASQSISSYLNWYQQKPGKAPKLLIYAASSLQSGVPSRFSGSGSGTDFTLTISSLQPEDFATYYCQQADLPAFAFGGGTKVEIKRTVAAPSVFIFPPSDEQLKSGTASVVCLLNNFYPREAKVQWKVDNALQSGNSQESVTEQDSKDSTYSLSSTLTLSKADYEKHKVYACEVTHQGLSSPVTKSFNRGEC
B2: CD98hc.04.009 (2+1 bispecific antibody) (bispecific antibody)
heavy 1: EVRLLESGGGLVQPGGSLRLSCAASGFTFSNYAMGWVRQAPGKGLEWVSAISGSGGSTYYADSVKGRFTTSRDDSKNALYLQMNSLRAEDTAVYYCARGGPGWYAADVWGQGTTVTVSSASTKGPSVFPLAPSSKSTSGGTAALGCLVKDYFPEPVTVSWNSGALTSGVHTFPAVLQSSGLYSLSSVVTVPSSSLGTQTYICNVNHKPSNTKVDKKV[here human IgG1 Fc with changes without letters]GGGGSGGGGSGGGGSQVQLKESGPGLVAPSQSLSITCTVSGFSLTSYGVHWVRQPPGKGLEWLGVIWAGGSTYYNSALMSRLSISKDNAKSQVLLKMSSLQTDDTAMYYCARDNYGGVYLDVWGAGTTVTVSSGGSEGKSSGSGSESKSTGGSENVLTQSPASMSASPGEKVTMTCRASSSVSSSYLHWYQQKSGASPKLWIYSTSNLASGVPARFSGSGSGTSYSLTISSVEAEDAATYYCQQYSGYPLTFGSGTKLEIK
heavy 2: EVRLLESGGGLVQPGGSLRLSCAASGFTFSNYAMGWVRQAPGKGLEWVSAISGSGGSTYYADSVKGRFTTSRDDSKNALYLQMNSLRAEDTAVYYCARGGPGWYAADVWGQGTTVTVSS[here human IgG1 constant region with changes without letters]
light: DIQMTQSPSSLSASVGDRVTITCRASQSISSYLNWYQQKPGKAPKLLIYAASSLQSGVPSRFSGSGSGTDFTLTISSLQPEDFATYYCQQADLPAFAFGGGTKVEIKRTVAAPSVFIFPPSDEQLKSGTASVVCLLNNFYPREAKVQWKVDNALQSGNSQESVTEQDSKDSTYSLSSTLTLSKADYEKHKVYACEVTHQGLSSPVTKSFNRGEC
B3: CD98hc.04.010 (2+1 bispecific antibody) (bispecific antibody)
heavy 1: EVRLLESGGGLVQPGGSLRLSCAASGFTFSNYAMGWVRQAPGKGLEWVSAISGSGGSTYYADSVKGRFTTSRDDSKNALYLQMNSLRAEDTAVYYCARGGPGWYAADVWGQGTTVTVSSASTKGPSVFPLAPSSKSTSGGTAALGCLVKDYFPEPVTVSWNSGALTSGVHTFPAVLQSSGLYSLSSVVTVPSSSLGTQTYICNVNHKPSNTKVDKKV[here human IgG1 Fc with changes without letters]GGGGSGGGGSGGGGSQVQLQQSGAELMKPGASVKISCKATGYTFSTYWIEWVKQRPGHGLEWIGEILPGSGTTTYNEKFKGKATFTADTSSNTAYMQLSSLTSEDSAVYYCARRTVYYRYEGIDYWGQGTTLTVSSGGSEGKSSGSGSESKSTGGSQIVLTQSPAIMSASPGEKVTITCSASSSVSYMFWFQQRPGTSPKLWIYTTSNLASGVPARFSGSGSGTSYSLTISRMEAEDAATYYCQQKNNYPFTFGSGTKLEIK
heavy 2: EVRLLESGGGLVQPGGSLRLSCAASGFTFSNYAMGWVRQAPGKGLEWVSAISGSGGSTYYADSVKGRFTTSRDDSKNALYLQMNSLRAEDTAVYYCARGGPGWYAADVWGQGTTVTVSS[here human IgG1 constant region with changes without letters]
light: DIQMTQSPSSLSASVGDRVTITCRASQSISSYLNWYQQKPGKAPKLLIYAASSLQSGVPSRFSGSGSGTDFTLTISSLQPEDFATYYCQQADLPAFAFGGGTKVEIKRTVAAPSVFIFPPSDEQLKSGTASVVCLLNNFYPREAKVQWKVDNALQSGNSQESVTEQDSKDSTYSLSSTLTLSKADYEKHKVYACEVTHQGLSSPVTKSFNRGEC
B4: CD98hc.04.011 (2+1 bispecific antibody) (bispecific antibody)
heavy 1: EVRLLESGGGLVQPGGSLRLSCAASGFTFSNYAMGWVRQAPGKGLEWVSAISGSGGSTYYADSVKGRFTTSRDDSKNALYLQMNSLRAEDTAVYYCARGGPGWYAADVWGQGTTVTVSSASTKGPSVFPLAPSSKSTSGGTAALGCLVKDYFPEPVTVSWNSGALTSGVHTFPAVLQSSGLYSLSSVVTVPSSSLGTQTYICNVNHKPSNTKVDKKV[here human IgG1 Fc with changes without letters]GGGGSGGGGSGGGGSDVQLQESGPDLVKPSQSLSLTCSVTVYSFTSVYSWHWIRQFPGNKLEWMGYIHDSGTTNYNPSLKSRISVTRDTSKNQFFLQLNSVTTEDTATYYCARGRPYGYDGFAYWGQGTLVTVSAGGSEGKSSGSGSESKSTGGSDIQMTQSSSYLSVSLGDRVTITCKASDHINNWLAWYQQKPGNAPRLLITGAVNLETGVPSRFSGSGSGKDYTLSITSLQTEDVATYYCQQYWSIPRTFGGGTNLEIK
heavy 2: EVRLLESGGGLVQPGGSLRLSCAASGFTFSNYAMGWVRQAPGKGLEWVSAISGSGGSTYYADSVKGRFTTSRDDSKNALYLQMNSLRAEDTAVYYCARGGPGWYAADVWGQGTTVTVSS[here human IgG1 constant region with changes without letters]
light: DIQMTQSPSSLSASVGDRVTITCRASQSISSYLNWYQQKPGKAPKLLIYAASSLQSGVPSRFSGSGSGTDFTLTISSLQPEDFATYYCQQADLPAFAFGGGTKVEIKRTVAAPSVFIFPPSDEQLKSGTASVVCLLNNFYPREAKVQWKVDNALQSGNSQESVTEQDSKDSTYSLSSTLTLSKADYEKHKVYACEVTHQGLSSPVTKSFNRGEC

Tests used:
Assay in all cases: FACS, 5 ug/ml
[1] = biological target: T1, Full length human CD98hc on CHO cells
Procedure: (§1) To determine binding retention of 2+1 anti-CD98hc bispecific antibodies by FACS, antibodies were evaluated for binding to HCMEC/D3 cells (a cell line derived from human brain endothelial cells), overexpressing human and mouse CD98hc CHO cell lines, and parental CHO cells for non-specific binding. Cells were seeded in tissue culture plates (50,000 cells/well) and washed and resuspended in FACS buffer (PBS+2% BSA+1 mM EDTA). The 2+1 anti-CD98hc bispecific antibodies were then incubated with cells (5 μg/ml, 1 hr, on ice) and washed twice with FACS buffer. Cells were then incubated with allophycocyanin conjugated anti-mouse secondary antibody (Jackson Immunoresearch) (1:1000, 30 min, on ice) and then washed twice with FACS buffer. Next, cells were resuspended in FACS buffer supplemented with 0.5% propidium iodide (Thermo Fisher). Anti-CD98hc binding was then analyzed on the iQue flow cytometer (IntelliCyt) by measuring the Mean Fluorescent Intensity (MFI). FACS data are summarized below in Table 17, shown as MFI fold-change relative to isotype hIgG1 control.

[2] = biological target: T2, Full length mouse CD98hc on CHO cells
Procedure: as §1

[3] = biological target: T3, human CD98hc endogenously expressed on …
Procedure: as §1

Row | Binder | MFI fold-change relative to isotype hIgG1 [1] | MFI fold-change relative to isotype hIgG1 [2] | MFI fold-change relative to isotype hIgG1 [3]
1 | B1 | 13 | 1.5 | 80.5
2 | B2 | 0.9 | 0.3 | 1.5
3 | B3 | 16 | 0.6 | 42.2
4 | B4 | 4.4 | 0.7 | 27.5
